Experimental findings from a collection of fitness landscapes (doi:10.1016/j.celrep.2020.107928) are described below.

The chains are these.
B1: Caulobacter ParB omega fusion; a variant is named by its letters at X, in order, B8GW30 (parent)
chain: MESVVVGEPGMSEGRRGLGRGLSALLGEVDAAPAQAPGEQLGGSREAPIEILQRNPDQPRRTFREEDLEDLSNSIREKGVLQPILVRPSPDTAGEYQIVAGERAWRAAQRAGLKTVPIMVRELDDLAVLEIGIIENVQRADLNVLEEALSYKVLMEKFERTQENIAQTIGKSXSHVANXMRLLXLPDEVQSYLVSGELTAXHARAIAAAADPVALAKQIIEGGLSVRETEALARKAPNLSAGKSKGGRPPRVKDTDTQALESDLSSVLGLDVSIDHRGSTGTLTITYATLEQLDDLCNRLTRGI

Whole data set: some 81,000 sequences, median “one-hybrid fitness for binding NBS DNA” near -0.1, cut for the highest 2% near 0.36. Some of the results follow.

The variants in this test derive from B1. As to the kind of experiment: one-hybrid fitness for binding NBS DNA (the Noc-binding site; scaled: cognate 1, non-cognate 0); higher = stronger binding. Particulars: with NBS DNA site. Summed up:
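The reporter was HIS3, with the binding site 19 bp from the promoter, in E. coli USO used for bacterial one-hybrid selection of Caulobacter ParB libraries with four specificity codons randomised. Growth was on M9 lacking histidine, with 0.1 mM IPTG and 5 mM 3-AT, for 48 hours at 37°C. Illumina sequencing covered plasmids before and after selection; three replicate libraries were pooled and variants with under 10 reads dropped. A fitness score is the log change in variant-to-wild-type read ratio, rescaled to the cognate and non-cognate references.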
For MLEF, the “one-hybrid fitness for binding NBS DNA” value was no more than 0.2.

Turning to PCGH, the “one-hybrid fitness for binding NBS DNA” value was no more than 0.2.

Consider SSQI, for which the “one-hybrid fitness for binding NBS DNA” value is no more than 0.2.

In the case of HAQS, the “one-hybrid fitness for binding NBS DNA” value is no more than 0.2. For the variant KTRI, the “one-hybrid fitness for binding NBS DNA” value is no more than 0.2.

Take IRME: the “one-hybrid fitness for binding NBS DNA” value is no more than 0.2. Under ANKL stands no more than 0.2; under YAEG, no more than 0.2; under LGML, no more than 0.2. Under QAYY stands no more than 0.2. Next, VDHL: no more than 0.2; NADS: no more than 0.2. Consider RYTE, for which the “one-hybrid fitness for binding NBS DNA” value is no more than 0.2. Under TCMR stands no more than 0.2. Under CRTN stands no more than 0.2. Next, WARC: no more than 0.2.

For HRKW, the “one-hybrid fitness for binding NBS DNA” value is no more than 0.2. For LGTA, the “one-hybrid fitness for binding NBS DNA” value was no more than 0.2. Consider YLIS, for which the “one-hybrid fitness for binding NBS DNA” value is no more than 0.2. MDRP: the “one-hybrid fitness for binding NBS DNA” value is no more than 0.2.

With RYDE, the “one-hybrid fitness for binding NBS DNA” value is no more than 0.2. Turning to AVYS, the “one-hybrid fitness for binding NBS DNA” value was no more than 0.2.

For SIVG, the “one-hybrid fitness for binding NBS DNA” value is no more than 0.2. Regarding QGFT, the “one-hybrid fitness for binding NBS DNA” value is no more than 0.2.

Consider GFNS, for which the “one-hybrid fitness for binding NBS DNA” value is no more than 0.2. Under RDAF stands no more than 0.2.

Take QDWV: the “one-hybrid fitness for binding NBS DNA” value was no more than 0.2.

As to PIYR, the “one-hybrid fitness for binding NBS DNA” value is no more than 0.2. For the variant QFTQ, the “one-hybrid fitness for binding NBS DNA” value is no more than 0.2.

Turning to EMYL, the “one-hybrid fitness for binding NBS DNA” value is no more than 0.2. Next, ANNG: no more than 0.2.

For the variant NRVQ, the “one-hybrid fitness for binding NBS DNA” value is no more than 0.2. Next, QIDH: no more than 0.2; MITP: no more than 0.2; IYHT: no more than 0.2. Next, EEQR: no more than 0.2; KVNY: no more than 0.2.

As for HYHS, the “one-hybrid fitness for binding NBS DNA” value is no more than 0.2. Next, HQIN: no more than 0.2. For HHWC, the “one-hybrid fitness for binding NBS DNA” value was no more than 0.2.

As to VGNC, the “one-hybrid fitness for binding NBS DNA” value was no more than 0.2. In the case of NGRL, the “one-hybrid fitness for binding NBS DNA” value is no more than 0.2. Next, QYVG: no more than 0.2; DTTY: no more than 0.2. Take NVAS: the “one-hybrid fitness for binding NBS DNA” value is no more than 0.2. Regarding KQEN, the “one-hybrid fitness for binding NBS DNA” value is no more than 0.2. Next, AVLY: no more than 0.2; ESWE: no more than 0.2; STNG: no more than 0.2. On to WDEG, for which the “one-hybrid fitness for binding NBS DNA” value was no more than 0.2. Under DTSK stands no more than 0.2.

With QHQF, the “one-hybrid fitness for binding NBS DNA” value was no more than 0.2.

Consider HMDG, for which the “one-hybrid fitness for binding NBS DNA” value is no more than 0.2. Take WFTS: the “one-hybrid fitness for binding NBS DNA” value was no more than 0.2. Under AVMG stands no more than 0.2.

Take TNIM: the “one-hybrid fitness for binding NBS DNA” value is no more than 0.2. Under QTGW stands no more than 0.2.

Take LHRF: the “one-hybrid fitness for binding NBS DNA” value was no more than 0.2. EGCS: the “one-hybrid fitness for binding NBS DNA” value is no more than 0.2. With SREP, the “one-hybrid fitness for binding NBS DNA” value is no more than 0.2. As for DHRI, the “one-hybrid fitness for binding NBS DNA” value is no more than 0.2.

With IHVW, the “one-hybrid fitness for binding NBS DNA” value was no more than 0.2. In the case of RCHF, the “one-hybrid fitness for binding NBS DNA” value is no more than 0.2. Under TGNS stands no more than 0.2; under IQLT, no more than 0.2; under TLST, no more than 0.2. Take LHLI: the “one-hybrid fitness for binding NBS DNA” value was no more than 0.2.

For PGNA, the “one-hybrid fitness for binding NBS DNA” value is no more than 0.2. On to DSRV, for which the “one-hybrid fitness for binding NBS DNA” value was no more than 0.2. Next, RCLF: no more than 0.2. Under LNNC stands no more than 0.2; under MKYK, no more than 0.2. Consider EYDV, for which the “one-hybrid fitness for binding NBS DNA” value was no more than 0.2. Under HLMG stands no more than 0.2.

For the variant HAAN, the “one-hybrid fitness for binding NBS DNA” value was no more than 0.2. Under FHAC stands no more than 0.2; under HFCC, no more than 0.2; under CWPL, no more than 0.2. In the case of QRAQ, the “one-hybrid fitness for binding NBS DNA” value is 0.412.

In the case of AIIT, the “one-hybrid fitness for binding NBS DNA” value was no more than 0.2. As for QLHW, the “one-hybrid fitness for binding NBS DNA” value is no more than 0.2. Under TYAI stands no more than 0.2. Under TVMG stands no more than 0.2; under QKEM, no more than 0.2; under NLNC, no more than 0.2. Under VSCS stands no more than 0.2. Consider QITE, for which the “one-hybrid fitness for binding NBS DNA” value was no more than 0.2. With NPPY, the “one-hybrid fitness for binding NBS DNA” value is no more than 0.2. Under ELPF stands no more than 0.2; under LGYR, no more than 0.2; under QGWD, no more than 0.2. In the case of VNQT, the “one-hybrid fitness for binding NBS DNA” value was no more than 0.2. Next, RVCW: no more than 0.2; RDSY: no more than 0.2; NFKP: no more than 0.2. In the case of WKTS, the “one-hybrid fitness for binding NBS DNA” value is no more than 0.2.

For the variant RNEV, the “one-hybrid fitness for binding NBS DNA” value came out at 0.385.

In the case of ICAG, the “one-hybrid fitness for binding NBS DNA” value is no more than 0.2. Turning to AWKV, the “one-hybrid fitness for binding NBS DNA” value was no more than 0.2. QQLN: the “one-hybrid fitness for binding NBS DNA” value was no more than 0.2.

Take IKRV: the “one-hybrid fitness for binding NBS DNA” value is no more than 0.2. Consider TADV, for which the “one-hybrid fitness for binding NBS DNA” value is no more than 0.2. With KLPG, the “one-hybrid fitness for binding NBS DNA” value is no more than 0.2. Under RQIC stands no more than 0.2. As to DGNT, the “one-hybrid fitness for binding NBS DNA” value was no more than 0.2. In the case of VRWT, the “one-hybrid fitness for binding NBS DNA” value was no more than 0.2.

Take EARM: the “one-hybrid fitness for binding NBS DNA” value was no more than 0.2. With RQWD, the “one-hybrid fitness for binding NBS DNA” value was no more than 0.2.

EVST: the “one-hybrid fitness for binding NBS DNA” value was no more than 0.2.

For the variant QVMT, the “one-hybrid fitness for binding NBS DNA” value was 0.228.

Turning to DSVS, the “one-hybrid fitness for binding NBS DNA” value is no more than 0.2.

In the case of TDNY, the “one-hybrid fitness for binding NBS DNA” value is no more than 0.2. Under KFHC stands no more than 0.2; under CYRV, no more than 0.2. Next, CGFT: no more than 0.2; YWPL: no more than 0.2. Regarding TASM, the “one-hybrid fitness for binding NBS DNA” value was no more than 0.2.

With NPFD, the “one-hybrid fitness for binding NBS DNA” value was no more than 0.2. For PPAL, the “one-hybrid fitness for binding NBS DNA” value is no more than 0.2. On to GIVL, for which the “one-hybrid fitness for binding NBS DNA” value was no more than 0.2. As to CILD, the “one-hybrid fitness for binding NBS DNA” value was no more than 0.2.

Take WSFC: the “one-hybrid fitness for binding NBS DNA” value was no more than 0.2. EPHR: the “one-hybrid fitness for binding NBS DNA” value is no more than 0.2. QGTI: the “one-hybrid fitness for binding NBS DNA” value was no more than 0.2. In the case of HTHC, the “one-hybrid fitness for binding NBS DNA” value is no more than 0.2. As to PGEL, the “one-hybrid fitness for binding NBS DNA” value is no more than 0.2.

For the variant TVVC, the “one-hybrid fitness for binding NBS DNA” value is no more than 0.2. Under HSAY stands no more than 0.2; under FYDL, no more than 0.2; under KLVD, no more than 0.2. Consider HSGI, for which the “one-hybrid fitness for binding NBS DNA” value is no more than 0.2. Regarding DAPV, the “one-hybrid fitness for binding NBS DNA” value was no more than 0.2. For the variant DPKD, the “one-hybrid fitness for binding NBS DNA” value is no more than 0.2. RGIS: the “one-hybrid fitness for binding NBS DNA” value is no more than 0.2. Under IHYV stands no more than 0.2; under FDLS, no more than 0.2; under CNFF, no more than 0.2. As to PPTK, the “one-hybrid fitness for binding NBS DNA” value is no more than 0.2. Next, QFAR: no more than 0.2; CINV: no more than 0.2. In the case of LYSC, the “one-hybrid fitness for binding NBS DNA” value was no more than 0.2. Next, RTVI: no more than 0.2; TCRR: 0.333.

Turning to LPND, the “one-hybrid fitness for binding NBS DNA” value is no more than 0.2. For the variant LVFY, the “one-hybrid fitness for binding NBS DNA” value was no more than 0.2. On to RNDI, for which the “one-hybrid fitness for binding NBS DNA” value is no more than 0.2. For MTRV, the “one-hybrid fitness for binding NBS DNA” value was no more than 0.2. Consider SKVG, for which the “one-hybrid fitness for binding NBS DNA” value is no more than 0.2.

Consider TTPY, for which the “one-hybrid fitness for binding NBS DNA” value is no more than 0.2. As to CEAS, the “one-hybrid fitness for binding NBS DNA” value was no more than 0.2. Next, LSYH: no more than 0.2; GMRG: no more than 0.2; VAQS: no more than 0.2.
